Measured values taken from PubChem BioAssay AID1030 (National Center for Advancing Translational Sciences (NCATS), 2008).
Values joined by “and” are separate entries in the source; they are usually repeats but may differ in a detail not shown here. Equal entries are not always repeated. Among all 220,000 compounds or so, about 16,000 (7.3%) were called active. Inconclusive results, whose numbers are uncertain, are shown with a selection of clear calls. Calls come from the whole dose curve; as a rule, active = well fitted inhibition curve with a large enough effect (not every such curve was filed as active); inconclusive = small, poorly fitted or top-dose-only effect, or another doubt; inactive = no such curve, though single readings can be large or run the other way. Potencies of inconclusive entries are doubtful fits and often do not repeat.

Molecular target: Aldehyde dehydrogenase 1A1 (Homo sapiens) (UniProt P00352)
Sequence of UniProt P00352 (P00352 whole entry, looked up): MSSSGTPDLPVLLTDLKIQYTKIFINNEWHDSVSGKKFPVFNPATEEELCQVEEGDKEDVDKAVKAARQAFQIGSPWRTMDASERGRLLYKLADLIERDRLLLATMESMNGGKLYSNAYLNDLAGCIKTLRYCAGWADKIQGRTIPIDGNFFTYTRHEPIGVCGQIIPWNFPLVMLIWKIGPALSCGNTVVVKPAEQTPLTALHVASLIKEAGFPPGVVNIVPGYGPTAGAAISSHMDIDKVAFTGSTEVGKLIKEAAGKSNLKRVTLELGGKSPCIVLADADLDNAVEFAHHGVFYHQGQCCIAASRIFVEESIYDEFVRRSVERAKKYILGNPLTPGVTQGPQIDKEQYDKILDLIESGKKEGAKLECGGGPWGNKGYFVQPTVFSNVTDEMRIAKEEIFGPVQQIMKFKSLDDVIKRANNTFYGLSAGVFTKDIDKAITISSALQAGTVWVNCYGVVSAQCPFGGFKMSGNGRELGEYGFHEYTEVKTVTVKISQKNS
Experiment: qHTS Assay for Inhibitors of Aldehyde Dehydrogenase 1 (ALDH1A1)
Conditions: Purified ALDH1A1, NADH fluorescence, propionaldehyde substrate; series mostly up to 75.3 µM
Potency is the fitted concentration of half-maximal effect; tags give direction and shape of the fitted curve.

SMILES | Potency
Cc1nc2ccccc2nc(C)c1=NO | active: 22.4 µM
CCOC(=O)C1=C(CNCc2ccc(C)cc2)NC(=O)NC1c1ccc(OC)cc1 (stereo unspecified) | inconclusive: 39.8 µM [inhibitor, single point]
Cc1cc(NC(=O)c2c(F)cccc2Cl)n(-c2nc3ccccc3[nH]2)n1 | inconclusive: 39.8 µM [inhibitor, single point]
Cc1ccccc1-n1c(=S)[nH]c2nc3c(cc2c1=O)CCCC3 | inconclusive: 2 µM [inhibitor, full curve]
Cc1ccc(C(=O)NNC(=S)NC(=O)COc2ccccc2)cc1 | active: 17.8 µM
CCn1cc(S(=O)(=O)CC(=O)Nc2ccc3c(c2)OCCO3)c2ccccc21 | inconclusive: 39.8 µM [inhibitor, single point]
CCOC(=O)c1c(C)c(C(=O)NCc2ccco2)c(C)n1CC | inactive
O=C(CSc1ncnc2sc3c(c12)CCCCC3)NCc1ccco1 | active: 8.91 µM
Cc1cc(C(=O)N/N=C/c2ccc(-c3cccc(Cl)c3)o2)n[nH]1 | inconclusive: 23.8 µM [inhibitor, partial curve]
Cc1[nH]c2ccccc2c1/C=N\NC(=O)CNc1ccc2c(c1)OCO2 | inactive
CC(=O)CSc1nnc(CN2C(=O)CSc3ccc(C(F)(F)F)cc32)n1C | inconclusive: 39.8 µM [inhibitor, single point]
Cc1sc2nc(COC(=O)C(NC(=O)c3ccc(Cl)cc3Cl)C(C)C)[nH]c(=O)c2c1C (stereo unspecified) | inconclusive: 39.8 µM [inhibitor, single point]
Cc1c(N=Nc2c(-c3ccc([N+](=O)[O-])cc3)[nH]n(C(N)=S)c2=O)cccc1[N+](=O)[O-] | active: 22.4 µM
N#CCSc1nnc(COc2ccc3ccccc3c2)o1 | inactive
Cn1ccnc1SCC(=O)Nc1sccc1C#N | active: 25.1 µM
Cc1cccc2sc(NC(=O)c3cc(S(=O)(=O)N(C)C)ccc3N3CCCC3)nc12 | inconclusive: 25.1 µM [inhibitor, partial curve]
CCN(CC)S(=O)(=O)c1ccc2[nH]cc(C(=O)NCCN3CCCCCC3)c(=O)c2c1 | inconclusive: 15.8 µM [inhibitor, partial curve]
CNS(=O)(=O)c1cccc(C(=O)OCC(=O)Nc2ccc(-c3nc4ccc(C)cc4s3)cc2)c1 | inconclusive: 23.8 µM [inhibitor, partial curve]
O=C(COc1ccccc1)NCC1(N2CCCCC2)CCCCC1 | inactive
COc1cc2ncc(-c3ccccc3)nc2cc1OC | inconclusive: 3.55 µM [inhibitor, full curve] and inconclusive: 3.55 µM [inhibitor, partial curve]
O=C(Cn1ccc2ccccc2c1=O)Nc1ccc2c(c1)OCO2 | inconclusive: 39.8 µM [inhibitor, single point]
CCOC(=O)C1CCN(c2nc(N)c3c(N)nc(SCC(=O)O)cc3c2C#N)CC1 | inconclusive: 22.4 µM [inhibitor, partial curve]
O=C1N=C(c2ccccc2)S/C1=C\c1cccs1 | active: 3.55 µM

SMILES | Potency
CC(=O)C1=C(C)Nc2cc(C(F)(F)F)ccc2S1 | inconclusive: 39.8 µM [inhibitor, single point]
CC(C)/C=C1\CCCCC1N(C)C(=O)NC(C)C (stereo unspecified) | inactive
CCn1nnc(NC(=O)c2cc(Cl)c(OC)c(Cl)c2)n1 | inconclusive: 39.8 µM [inhibitor, single point]
CN(C)S(=O)(=O)c1ccc(S(=O)(=O)Nc2ccc3c(c2)oc2ccccc23)cc1 | active: 12.6 µM
CC(C)CN1C(=O)c2ccc(C(=O)NCc3ccc4c(c3)OCO4)cc2C1=O | inconclusive: 0.631 µM [inhibitor, full curve]
Nc1[nH]nc2nc(-c3ccccc3)[nH]c(=O)c12 | inactive
O=C(Nc1nnc(-c2ccccc2)s1)c1cccc(S(=O)(=O)N2CCOCC2)c1 | inconclusive: 35.5 µM [inhibitor, partial curve]
CN(C)/C=C/C(=C\C(=O)C(F)(F)F)Nc1ccc(C(F)(F)F)cc1 | inactive
COc1ccc(OC)c(CNn2c(-c3ccccc3F)nc3ccccc3c2=O)c1 | inconclusive: 28.2 µM [inhibitor, partial curve]
CCCC(c1nnnn1C(C)(C)C)N1CCN(Cc2ccccc2)CC1 (stereo unspecified) | inactive
CCC(C)/C(C)=N/NC(=O)c1ccc(CSc2nc3ccccc3s2)cc1 (stereo unspecified) | active: 20 µM
Cc1ccc(C(C)C)c(OCCN(C)C)c1 | inconclusive: 39.8 µM [inhibitor, single point]
COc1ccc(C(=O)CCC(C)(C)[N+](=O)[O-])cc1 | inconclusive: 17.8 µM [inhibitor, partial curve]
S=c1[nH]ccn1-c1ccccc1Cl | inconclusive: 39.8 µM [inhibitor, single point]
COc1ccc(N2C(=O)CSC2c2ccccc2[N+](=O)[O-])cc1 (stereo unspecified) | inconclusive: 31.6 µM [inhibitor, single point]
CC(C)(C)n1nnnc1C(c1cc2cc3c(cc2[nH]c1=O)OCCO3)N1CCSCC1 (stereo unspecified) | inconclusive: 35.5 µM [inhibitor, single point]
O=C1ON=C(c2ccccc2)/C1=C/c1ccco1 | inconclusive: 39.8 µM [inhibitor, single point]
Cc1cc(NC(=O)CCOc2ccc(F)cc2)no1 | active: 0.708 µM
COc1cc2ncnc(NCc3ccc(C)cc3)c2cc1OC | inconclusive: 39.8 µM [inhibitor, single point]
COc1ccc(S(=O)(=O)Nc2ccc3c(c2)OCO3)cc1OC | inconclusive: 39.8 µM [inhibitor, single point]
O=C(CSc1nccc(=O)[nH]1)c1ccco1 | inactive
Cc1cc(N2CCOCC2)nc2ccccc12 | inconclusive: 39.8 µM [inhibitor, single point]
CNC(=O)c1c(C)nc(SCC(=O)NCc2ccc(OC)cc2)c(C#N)c1-c1ccco1 | inconclusive: 12.6 µM [inhibitor, partial curve]
